Results: the supplement of paper PMC10126150
Sequences with one replicate were seen in a single cluster, so their values are uncertain.

System: ATP
Assay: switch fluorescence ratio, 500 uM ATP over buffer (Cy3 cluster intensity, sum of 5 cycles each) (fold (ratio)); higher = stronger signal-on switching upon ATP binding; sequences stand for … in TCGTCGGCAGCGTCAGATGTGTATAAGAGACAGTTTTTTTTTTTTTTTTTTTTTTTTT…TC
Conditions: aptamer strand: ATP DNA aptamer (quencher-CACCTGGGGGAGTATTGCGGAGGAAGG + anchor), 100 nM annealed; ATP concentration: 500 uM; one replicate
In short: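 Values give the fluorescence ratio for each switch-domain sequence, averaged from per-cluster ratios of summed target-cycle to summed buffer-cycle Cy3 intensity. The Cy3-labelled switching-strand clusters sat on a modified Illumina MiSeq flow-cell, were annealed to 100 nM quencher-labelled ATP aptamer, and were imaged in selection buffer, then after 15 min with 500 uM ATP at 22 °C. Five cycles ran with NaOH stripping and re-annealing between them, and clusters outside 100-1000 RFU were excluded.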
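Further: ATP exposure 15 min at 22 °C before imaging.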

Sequence	switch fluorescence ratio
CGAGTTTACG	1.03
AGGTCGCCGT	1.05
GAAAACGGCG	1.02
TAAATTAGTC	0.941
GACCCAAGTA	1.07
CGGGATCGAT	0.967
GTATTCAATC	1
GATGTGGGCC	1.03
CTATAGTTTG	0.973
GTTTAGGACT	0.965
GCTTTAGAGT	1.02
TTAGACAGCA	1.03
AAAAGTGTGA	1.01
ACGATCTCAC	1.11
CGATCATCTA	0.982
CGCAGTCGAA	1.04
ATACGTCACA	1.57
CCGATGTCTG	1.1
GGAGGTTGTT	0.968
GGATATGGGC	1.03
CTATGTAA	1
GAAAAATCCT	3.67
GAAAGCGCGC	0.966

Sequence	switch fluorescence ratio
TTTACAACTA	1
ACAAGCTTAA	1
ATATACTGG	1.06
GTTTGCCTAC	1.08
GAAAAACAAT	1.23
TATTAGGGCG	0.991
TCGTAGCTGC	1.93
CATGAAAGGA	0.976
GACACGTCCC	1.07
ACCTATATTT	1.01
GAGGGTGCG	0.983
GGAGGGACGA	0.985
GGCGTGCCGG	0.947
TTGTTCCTCA	1.04
ACCGGATTTT	0.988
ATGGTGGAAC	0.983
AATTATGGTC	0.957
GGTTGCGTAC	0.993
TTGCCCAGC	0.935
TTCTCGGGAA	1.06
AAACGATATA	1.01
GGTGGACGCT	0.953
CAACTGTGAA	1.02

Sequence	switch fluorescence ratio
TGCTATTCGA	1.01
TAAGGGTGG	0.964
AGCTTATTTA	0.994
GGTTTAGCC	0.955
GTTTTTAGTC	0.954
TCCTTTTGTC	1.06
GCTCTCATAA	1.08
AAGTCGCTTA	1.02
GGTTTGATCT	1.02
GTATTATGGT	0.921
CGTTTATTGC	1.03
TTAATCAGTT	1
AGTCTAACTA	0.968
ACCAAAATCG	1.07
GCGAACGACG	1.11
TGAGGACATG	0.966
ATTACTGAAG	1.05
ATACCTGGTT	0.949
GGGAATACAG	0.998
GTAGTGTAGC	1.05
AGCTTCTAGC	1.01
CAGGGAGTTG	0.991
GTCGCTAGGG	1.02

Sequence	switch fluorescence ratio
AGCGGACTGG	1
TTAGTCGCCA	0.947
GGTGTTTATT	0.978
GAGCACGCGG	1.04
ACATTGCTTC	0.999
CTGTCACGAC	1.13
GTGATGAGG	0.998
TCTCTACCTT	1.15
TACACAATTT	1.05
GATGCTTTCT	1.01
TTATCACAGT	1.03
TGTTCGGGCC	1.01
TGCTTGGACG	1.03
AGTACCGATC	1.12
AGGTGACACT	1.03
TGGGTAATGA	1.01
AATTAGTGTA	0.984
CTTAGCTTCA	1.04
AAGGGACTTA	1.01
TGCGCAACGC	1.52
TGTGTAAAGC	1.06
CCCACCCAAG	1.16
TCGTACTGAG	1.06

Sequence	switch fluorescence ratio
AATATCAGTT	0.963
CAATTGGGGC	1.01
GGTGGCGTGG	0.946
CATAAAAGGC	0.992
TAAAAGCCGA	0.923
GGCGGCCAAG	0.973
GGAGCTCCCC	0.935
TATGCGATGC	2.01
TGTCAAAATT	0.996
GTTGTCTCCC	0.99
GCATCTAGCT	1.01
ATCCCGGCCG	0.983
TTTTCCTCAT	1.06
AGGCGTCCA	1.02
AACGTTTGGA	1.01
TGGAATGTTT	1
TTAACGTGCT	1.05
GATGGGGT	0.99
GCCAAATGGA	1.01
CCTGTTTCAT	1.02
AAGGCCGCTA	1.02
AGATGGACGT	1.02
TTATTCCTCT	1.01

Sequence	switch fluorescence ratio
GACTCGGTTG	0.959
GCGTAAGACG	1.15
CGAGCCTTCA	1.36
CCAAACCTGT	1.13
AGGTGCACTG	1.01
AAAATACGCA	2.54
TACGACCAAC	1.76
ACAATATCAA	1.04
GCGATATAAT	1.01
TCTGTGCACC	1.02
CGGGCGGGA	1.02
GCTCTACCCT	1.11
GGGGATCCTA	0.965
GCGCCGGCTA	1.02
TCTCATGTGT	1.05
TGGGGGTGAT	0.987
CGAAAGTGGA	0.984
CACTATCTCT	0.988
CCTCTGGAAC	4.18
TTACGAGCAT	1.45
GCTGGGGGC	1.01
AAATATTGTA	0.996
GACGGAGTGG	0.987

Sequence	switch fluorescence ratio
GTCATCGGCG	0.999
GACGCAGACT	3.81
TTATGGTG	1.03
ACCATCGCTT	1.09
CCGCGGGGGA	1.09
GTTCTTGCTG	0.987
ACGCGGGGGC	1.05
GTTGGTAGTT	0.956
TAAGTACCTC	1.27
AGCATTTTAA	1.02
AACGAT	1.02
CCACTGTCGA	1.21
TGACTTCTAG	0.99
GTTTTTAAAT	0.993
GGTTCCGATT	1.01
TCACTCAAGG	0.999
GAGTAGCAGC	1.01
CTCATCTCAT	1.01
TTGTGGGTAA	1.04
